Results taken from the supplement of paper PMC10724272.
MIC of invasive clinical C. tropicalis isolates, CLSI broth microdilution (fluconazole 0.12-256 mg/L, up to 1,024 for the azole-resistant cluster and its neighbour group; other ranges not stated); higher = less susceptible. Call: susceptible or wild type [S] / resistant or non-wild type [R] by CLSI breakpoints or cut-offs; intermediate and dose-dependent carry no call. '<=' and '>=' at the end values are inferred; the source marks only some of them. Isolates are numbered anew.

These test systems were tested with C[C@@H](c1ncncc1F)[C@](O)(Cn1cncn1)c1ccc(F)cc1F [voriconazole] (assay: CLSI broth microdilution.).
“Candida tropicalis isolate 292 (ERG11 copies: 2, Erg11p: no key change)” gave an MIC of 0.03 mg/L [S]. “Candida tropicalis isolate 432 (ERG11 copies: 2, Erg11p: no key change)” gave an MIC of 0.12 mg/L [S]. With “Candida tropicalis isolate 186 (ERG11 copies: 2, Erg11p: no key change)” the MIC was ≤ 0.008 mg/L [S]. For “Candida tropicalis isolate 414 (ERG11 copies: 2, Erg11p: no key change)”, the MIC was 0.03 mg/L [S]. “Candida tropicalis isolate 323 (ERG11 copies: 2, Erg11p: no key change)” was tested, and the MIC was 0.25 µg/mL. “Candida tropicalis isolate 9 (ERG11 copies: 2, Erg11p: no key change)” was tested, and the MIC was 0.06 mg/L [S]. In the case of “Candida tropicalis isolate 172 (ERG11 copies: 2, Erg11p: no key change)”, the MIC is reported as ≥ 8 mg/L [R]. Work on “Candida tropicalis isolate 61 (ERG11 copies: 2, Erg11p: no key change)” yielded an MIC of 0.12 mg/L [S]. With “Candida tropicalis isolate 343 (ERG11 copies: 2, Erg11p: no key change)” the MIC was 0.12 mg/L [S]. For “Candida tropicalis isolate 423 (ERG11 copies: 8, Erg11p: Y132F, S154F (heterozygous))”, the MIC was ≥ 8 mg/L [R]. With “Candida tropicalis isolate 108 (ERG11 copies: 2, Erg11p: Y132F, S154F (heterozygous))” the MIC was 1 mg/L [R]. For “Candida tropicalis isolate 253 (ERG11 copies: 2, Erg11p: no key change)”, the MIC was ≥ 8 mg/L [R]. For “Candida tropicalis isolate 219 (ERG11 copies: 2, Erg11p: no key change)”, the MIC was 0.06 mg/L [S]. Work on “Candida tropicalis isolate 375 (ERG11 copies: 2, Erg11p: no key change)” yielded an MIC of 0.03 mg/L [S].

These test systems were tested with C[C@@H]1[C@H](O)[C@@H](C)/C=C/C=C/C=C/C=C/C=C/C=C/C=C/[C@H](O[C@@H]2O[C@H](C)[C@@H](O)[C@H](N)[C@@H]2O)C[C@@H]2O[C@](O)(C[C@@H](O)C[C@@H](O)[C@H](O)CC[C@@H](O)C[C@@H](O)CC(=O)O[C@H]1C)C[C@H](O)[C@H]2C(=O)O [amphotericin B] (assay: CLSI broth microdilution.).
In the case of “Candida tropicalis isolate 424 (ERG11 copies: 2, Erg11p: no key change)”, the MIC is reported as 0.5 mg/L [S]. With “Candida tropicalis isolate 192 (ERG11 copies: 2, Erg11p: no key change)” the MIC was 1 mg/L [S]. “Candida tropicalis isolate 212 (ERG11 copies: 2, Erg11p: no key change)” showed an MIC of 1 mg/L [S]. “Candida tropicalis isolate 98 (ERG11 copies: 2, Erg11p: no key change)” gave an MIC of 1 mg/L [S]. Work on “Candida tropicalis isolate 337 (ERG11 copies: 2, Erg11p: no key change)” yielded an MIC of 2 mg/L [S]. “Candida tropicalis isolate 3 (ERG11 copies: 7, Erg11p: Y132F, S154F (heterozygous))” gave an MIC of 1 mg/L [S]. “Candida tropicalis isolate 381 (ERG11 copies: 7, Erg11p: Y132F, S154F (heterozygous))” gave an MIC of 1 mg/L [S]. For “Candida tropicalis isolate 97 (ERG11 copies: 2, Erg11p: no key change)”, the MIC was 0.5 mg/L [S]. For “Candida tropicalis isolate 433 (ERG11 copies: 2, Erg11p: no key change)”, the MIC was 0.5 mg/L [S]. “Candida tropicalis isolate 135 (ERG11 copies: 2, Erg11p: no key change)” was tested, and the MIC was 1 mg/L [S]. In the case of “Candida tropicalis isolate 151 (ERG11 copies: 2, Erg11p: no key change)”, the MIC is reported as 1 mg/L [S]. In the case of “Candida tropicalis isolate 86 (ERG11 copies: 2, Erg11p: no key change)”, the MIC is reported as 0.5 mg/L [S]. Test System “Candida tropicalis isolate 371 (ERG11 copies: 2, Erg11p: no key change)” has an MIC of 0.5 mg/L [S]. Test System “Candida tropicalis isolate 333 (ERG11 copies: 2, Erg11p: no key change)” has an MIC of 1 mg/L [S]. In the case of “Candida tropicalis isolate 218 (ERG11 copies: 2, Erg11p: no key change)”, the MIC is reported as 1 mg/L [S]. “Candida tropicalis isolate 448 (ERG11 copies: 7, Erg11p: Y132F, S154F (heterozygous))” gave an MIC of 0.5 mg/L [S]. Test System “Candida tropicalis isolate 339 (ERG11 copies: 3, Erg11p: Y132F, S154F (heterozygous))” has an MIC of 0.5 mg/L [S]. For “Candida tropicalis isolate 177 (ERG11 copies: 2, Erg11p: no key change)”, the MIC was 0.25 mg/L [S]. For “Candida tropicalis isolate 53 (ERG11 copies: 2, Erg11p: no key change)”, the MIC was 1 mg/L [S]. “Candida tropicalis isolate 335 (ERG11 copies: 2, Erg11p: no key change)” was tested, and the MIC was 1 mg/L [S]. Work on “Candida tropicalis isolate 428 (ERG11 copies: 2, Erg11p: Y257H (homozygous))” yielded an MIC of 1 mg/L [S]. “Candida tropicalis isolate 176 (ERG11 copies: 2, Erg11p: no key change)” was tested, and the MIC was 1 mg/L [S]. Test System “Candida tropicalis isolate 292 (ERG11 copies: 2, Erg11p: no key change)” has an MIC of 1 mg/L [S]. In the case of “Candida tropicalis isolate 432 (ERG11 copies: 2, Erg11p: no key change)”, the MIC is reported as 0.5 mg/L [S]. With “Candida tropicalis isolate 186 (ERG11 copies: 2, Erg11p: no key change)” the MIC was 0.5 mg/L [S]. With “Candida tropicalis isolate 414 (ERG11 copies: 2, Erg11p: no key change)” the MIC was 1 mg/L [S]. With “Candida tropicalis isolate 323 (ERG11 copies: 2, Erg11p: no key change)” the MIC was 1 mg/L [S].
